Among the data in PubChem BioAssay AID485298 (National Center for Advancing Translational Sciences (NCATS), 2010) are growth rescue (activation) values, retold here.

Molecules are shown by their SMILES. The campaign covered roughly 320,000 compounds. About 740 (0.23%) were called active. Not shown: some 2% with an inconclusive outcome. Only a part is listed here, and it is no random draw. Where no call is shown, the source filed none.

The assay is described as follows: qHTS Assay for Small Molecule Inhibitors of Mitochondrial Division or Activators of Mitochondrial Fusion.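 Further: temperature-sensitive fusion mutants such as fzo1-1 at 37 °C on non-fermentable ethanol glycerol medium; % of control where 0% means no effect; nearly all actives have a fitted effect of over 45% in size.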 The settings on record: S. cerevisiae fusion-defective mutant growth rescue, CellTiterGlo 48 h; at 46.1 µM (top of the series; the call rests on the fitted dose curve and not on this point). The text has this:
NIH Chemical Genomics Center [NCGC] NIH Molecular Libraries Probe Production centers Network [MLPCN] MLPCN Grant: MH081279-01 Assay Submitter (PI): Jodi M. Nunnari NCGC Assay Overview: The budding yeast S. cerevisiae is a powerful system to study mitochondrial fusion. Unlike other organisms, yeast cells without functional mitochondrial DNA (mtDNA) can be propagated and studied as long as they maintain a mitochondrial compartment and are provided with a fermentable carbon source. When mitochondrial fusion is blocked in yeast, mitochondrial tubules rapidly fragment and division continues unopposed. Under conditions where fusion is compromised in mammalian cells, nearly identical changes in mitochondrial structure have been observed. Thus, these findings indicate that steady state mitochondrial structure in cells is a characteristic and specific indicator of fusion activity. […] We have developed and optimized a luminescence cell viability assay in 1536 well format for the identification of inhibitors in the yeast mitochondrial fusion-defective assay.
The yeast glycerol stocks where kindly supplied by the laboratory of Dr. Jodi Nunnari, University of California, Davis. […] The CellTiterGlo luminescence reagent, containing luciferase and luciferin, were purchased from Promega, and the reagents were stored according to manufacturer's instructions. […] 7.#Read using bio-luminescence protocol on Viewlux.
`CC1CCCCC1NC(=O)CNC(=S)N1CC2CC(C1)c1cccc(=O)n1C2` (stereo unspecified) displayed a growth rescue (activation) of 21.9%.
